According to PubChem BioAssay AID588855 (National Center for Advancing Translational Sciences (NCATS), 2011):
Hit rate of the full screen: of about 410,000 compounds, about 5,000 (1.2%) were called active. Inconclusive results, whose numbers are uncertain, are shown with a selection of clear calls. The call rests on the fitted dose curve; in most records, active means well fitted inhibition curve with a large enough effect; inconclusive means small, poorly fitted or top-dose-only effect; inactive means no such curve, though single readings can be large or run the other way. Potencies beside an inconclusive call are fits to weak or partial responses and may not hold up.
On the % scale 0 is the no-effect control and ±100 the full control effect; potency means the concentration at half of the fitted maximal effect; tags describe the fitted curve by direction and shape.

Assay: qHTS for Inhibitors of TGF-b; further: nearly all actives have a fitted effect of over 65% in size
Details: HepG2 CAGA-GFP TGF-b/SMAD3 reporter, GFP fluorescence, 18 h, TGF-beta stimulated, 500 pg/mL final; series mostly up to 46.1 µM; activity, negative = inhibition: at the top concentration
Outline: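 Per well, imaged GFP fluorescence of HEPG2 CAGA-GFP cells gives the signal; cells get compound, then TGF-beta (500 pg/mL final), 18 h at 37 degrees C; %Activity versus -TGF-beta and +DMSO controls.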
For CCCN1CCc2c(sc(NC(=O)c3ccc(S(=O)(=O)N(C)c4ccccc4)cc3)c2C(N)=O)C1, the “activity, negative = inhibition” value was inactive: 11.2%.
In the case of CC[C@@H]1C=C(C(=O)O)[C@H](c2ccc(Br)cc2)N1S(=O)(=O)c1ccc(C)cc1, the Potency is reported as inconclusive: 1 µM [inhibitor, partial curve].
For COc1nc(C)ccc1-c1noc(-c2cccnc2)n1, the “activity, negative = inhibition” value was inactive: 21.3%.
For COc1ccc(C(=O)c2nccc3ccccc23)cc1, the “activity, negative = inhibition” value was inactive: -8.21%.
With CCC(C)C(=O)Nc1nc(C)c(-c2csc(Nc3ccc(Cl)cc3)n2)s1 (stereo not drawn) the Potency was inconclusive: 22.4 µM [inhibitor, partial curve, poor fit].
In the case of Cc1cc(Br)cn2c(Cc3ccccc3)c(-c3ccc(C#N)cc3)nc12, the Potency is reported as inconclusive: 25.1 µM [inhibitor, partial curve, poor fit].
In the case of CCn1c(C(O)c2ccccc2)nc2ccccc21 (stereo not drawn), the “activity, negative = inhibition” value is reported as inactive: 0.218%.
In the case of Cc1ccc(NC(=O)c2oc3ccc4c(c3c2C)C(=O)CC(C)(C)O4)c(C)c1, the Potency is reported as inconclusive: 6.31 µM [inhibitor, single point].
With O=C1NC(c2ccccc2Cl)=N/C1=C/c1ccco1 the Potency was inconclusive: 0.112 µM [inhibitor, full curve, poor fit].
For Cc1ccc(C(=O)NCC(=O)Nc2ncccc2C)s1, the “activity, negative = inhibition” value was inactive: 10.8%.
For NC1=NC(c2cccc(Cl)c2)n2c(nc3ccccc32)N1 (stereo not drawn), the “activity, negative = inhibition” value was inactive: 2.89%.
With CCCS(=O)(=O)Nc1cccc(-c2cn3ccc(C)cc3n2)c1 the Potency was inconclusive: 1.41 µM [inhibitor, full curve, poor fit].
In the case of O=C(NCCCN1CCCC1=O)C1CCN(S(=O)(=O)c2ccccc2)CC1, the Potency is reported as inconclusive: 1.26 µM [inhibitor, full curve, poor fit].
With COc1ccccc1NC(=O)CCc1c(C)nc2c(-c3ccc(F)cc3)c(C)nn2c1C the “activity, negative = inhibition” value was inactive: -0.0371%.
In the case of CC1C(=O)C(C)C(c2ccc([N+](=O)[O-])cc2)NC1c1ccc([N+](=O)[O-])cc1 (stereo not drawn), the “activity, negative = inhibition” value is reported as inactive: 8.58%.
With O=C1CCSC2(C(=O)N(Cc3ccc(F)cc3)c3ccccc32)N1c1ccc(Cl)cc1 (stereo not drawn) the Potency was inconclusive: 12.6 µM [inhibitor, partial curve, poor fit].
For CCOC(=O)C1CCCN(C(=O)c2ccc3c(c2)C(C)(C)CCC3(C)C)CC1 (stereo not drawn), the Potency was active: 14.1 µM.
For CCNc1nc(OC)nc(N2CCC(Cc3ccccc3)CC2)n1, the Potency was inconclusive: 8.91 µM [inhibitor, partial curve].
In the case of COc1ccc(C2CC(c3ccc(Cl)cc3)Nc3nc(NC(=O)c4ccco4)nn32)cc1 (stereo not drawn), the Potency is reported as inconclusive: 5.62 µM [inhibitor, single point].
In the case of CN(C)c1cccc(C(=O)N2CCCC(CCC(=O)NCc3ccccc3F)C2)c1 (stereo not drawn), the Potency is reported as inconclusive: 22.4 µM [inhibitor, single point].
With CN(Cc1ccccc1)c1cc2c(c3c1ccn3C)C1CCC2O1 (stereo not drawn) the Potency was inconclusive: 2.51 µM [inhibitor, partial curve, poor fit].
With CC(C)c1nn2c(=O)cc(COC(=O)c3cccs3)nc2s1 the Potency was inconclusive: 0.112 µM [inhibitor, full curve, poor fit].
With CC1(Cc2cccc(C(F)(F)F)c2)C(=O)Nc2ccc(-c3ccc(F)c(Cl)c3)cc21 (stereo not drawn) the Potency was active: 10 µM.
With O=C(NNC(=S)Nc1ccccc1)c1cccc(Br)c1 the Potency was inconclusive: 25.1 µM [inhibitor, single point].
For CCSc1nsc(NC(=O)Nc2cccc(OC)c2)n1, the Potency was active: 22.4 µM.
In the case of Cc1ccc(C(=O)OCC(=O)NCc2ccc(Cl)cc2Cl)o1, the “activity, negative = inhibition” value is reported as inactive: -12.9%.
With CC(=O)Nc1ccc2nc3c(=O)n(C)c(=O)n(C)c3nc2c1C the “activity, negative = inhibition” value was inactive: 10.5%.
For CCOC(=O)Cn1c(=O)oc2cc(S(=O)(=O)N3CCN(c4cccc(C)c4)C(C)C3)ccc21 (stereo not drawn), the Potency was inconclusive: 11.2 µM [inhibitor, partial curve].
For [N-]=[N+]=NC[C@H](Cc1ccccc1)N1CCN(Cc2ccccc2)CCC1=O, the Potency was inconclusive: 3.55 µM [inhibitor, single point].
In the case of COc1ccccc1CNC(=O)C(C)n1c(=O)cc(-c2ccccc2)c2c(C)nn(C)c21 (stereo not drawn), the Potency is reported as inconclusive: 10 µM [inhibitor, partial curve].
For CCOC(=O)c1c(C)[nH]c(C)c1C(=O)CSc1nc2ccccc2[nH]1, the Potency was inconclusive: 15.8 µM [inhibitor, single point].
With CC(=O)/C(=N\Nc1cccc(Cl)c1)Sc1nnc(-c2ccccc2)n1-c1ccccc1 the Potency was inconclusive: 17.8 µM [inhibitor, single point].
For Nc1ccc(Oc2cccc(Oc3ccc(N)cc3)c2)cc1, the “activity, negative = inhibition” value was inactive: -17.8%.
With O=S(=O)(c1ccc(SCc2c(F)cccc2Cl)nc1)N1CCCC1 the Potency was inconclusive: 8.91 µM [inhibitor, partial curve, poor fit].
For O=S(=O)(c1ccc2ccccc2c1)N1CCN(C(=S)Nc2ccc(F)cc2)CC1, the Potency was inconclusive: 14.1 µM [inhibitor, single point].
In the case of C(=NOCc1ccccc1)c1cccnc1, the “activity, negative = inhibition” value is reported as inactive: 16.7%.
For Brc1ccc(-c2noc(COc3ccc4ccccc4c3)n2)o1, the Potency was inconclusive: 11.2 µM [inhibitor, partial curve].
With CCOC(=O)c1cccc(NC(=O)c2oc3c(c2C)-c2nn(CC)cc2CC3)c1 the “activity, negative = inhibition” value was inactive: -13.7%.
For COc1ccc(N2C(=O)N3[C@H](c4ccc(Br)cc4)[C@@H]4C(=O)N(C(C)(C)C)C(=O)[C@@H]4[C@]3(Cc3ccccc3)C2=O)cc1, the Potency was inconclusive: 35.5 µM [inhibitor, single point].
With C[C@H](CO)N1C[C@H](C)[C@@H](CN(C)Cc2ccc(Oc3ccccc3)cc2)Oc2c(NC(=O)c3ccncc3)cccc2C1=O the Potency was active: 14.1 µM.
With COc1ccc(OC)c(Nc2sc(C(=O)c3ccccc3)c(N)c2S(=O)(=O)c2ccccc2)c1 the “activity, negative = inhibition” value was inactive: -3.58%.
With O=c1oc2ccccc2c(N2CCN(c3ccc(F)cc3)CC2)c1CN1CCCC1 the Potency was inconclusive: 3.16 µM [inhibitor, full curve, poor fit].
In the case of O=C(O)c1ccc(N/N=C/c2cn(Cc3ccc(F)cc3)c3ccccc23)cc1, the Potency is reported as inconclusive: 35.5 µM [inhibitor, single point].
In the case of O=C(Cn1ncc2c([nH]c3ccccc32)c1=O)NCCCN1CCN(c2ccccc2)CC1, the Potency is reported as inconclusive: 6.31 µM [inhibitor, single point].
In the case of Cc1ccc(S(=O)(=O)Nc2nc3ccccc3nc2NCC2CCCO2)cc1C (stereo not drawn), the “activity, negative = inhibition” value is reported as inactive: 2.11%.
With C[C@H](NC(=O)c1nc[nH]c1C(=O)NCCCCCNC(=O)OC(C)(C)C)C(=O)OC(C)(C)C the Potency was inconclusive: 5.01 µM [inhibitor, full curve].
For Cc1ccc(OCc2ccc(C(=O)Nc3c(C)nn(Cc4c(F)c(F)c(F)c(F)c4F)c3C)o2)c([N+](=O)[O-])c1, the Potency was inconclusive: 3.98 µM [inhibitor, full curve, poor fit].
In the case of COc1cc(NC(=O)NS(=O)(=O)c2ccc(C)cc2)cc(OC)c1, the Potency is reported as inconclusive: 35.5 µM [inhibitor, single point].
In the case of C[C@]1(C(=O)NCCCNc2ncc(C(F)(F)F)cc2Cl)C=C[C@@H](Cc2ccccc2)N1C(=O)c1ccccc1, the Potency is reported as inconclusive: 35.5 µM [inhibitor, single point].
For Cc1cccc(C)c1C(O)c1ncc(-c2ccc(Cl)cc2)[nH]1 (stereo not drawn), the “activity, negative = inhibition” value was inactive: -14.6%.
With CC(=O)Nc1cccc(-c2ccnc3c2CC(C(=O)Nc2ccc(C(C)C)cc2)O3)c1 (stereo not drawn) the “activity, negative = inhibition” value was inactive: 16.4%.
In the case of CCN(CC)S(=O)(=O)c1ccc(C)c(NC(=O)CNc2cccc(S(=O)(=O)N3CCCC3)c2)c1, the Potency is reported as inconclusive: 11.2 µM [inhibitor, single point].
In the case of N#Cc1cc(C(=O)c2cc(F)ccc2O)cn(Cc2ccccc2)c1=O, the Potency is reported as inconclusive: 10 µM [inhibitor, partial curve, poor fit].
With O=C(NC1CCCCC1)C(c1ccccc1)N(Cc1ccco1)C(=O)Cn1cnc2ccccc21 (stereo not drawn) the Potency was inconclusive: 35.5 µM [inhibitor, single point].
With COc1ccc(NC(=O)C2=CC(c3ccc(C)cc3)=NS(=O)(=O)N2C)cc1 the Potency was inconclusive: 7.94 µM [inhibitor, partial curve].
With Cc1cc(C)c(NC(=O)CN(C)C(C)C(=O)N2CCc3ccccc32)c(C)c1 (stereo not drawn) the Potency was inconclusive: 35.5 µM [inhibitor, single point].
With Cc1ccc(SCC(c2ccccc2)N2CCN(C)CCC2=O)cc1 (stereo not drawn) the “activity, negative = inhibition” value was inactive: -6.13%.
For O=C(O)c1cc(N(Cc2ccccc2O)Cc2ccccc2O)ccc1O, the “activity, negative = inhibition” value was inactive: -27.5%.
For O=C1CCCN1C(=O)CSc1ncnc2sccc12, the “activity, negative = inhibition” value was inactive: -2.09%.
With CC(C)Cc1cc(CN2CCCC(CO)(Cc3cccc(Cl)c3)C2)[nH]n1 (stereo not drawn) the Potency was inconclusive: 35.5 µM [inhibitor, single point].
In the case of CC(=O)N1CCN(c2ccc(NCc3ccc(Br)o3)cc2)CC1, the Potency is reported as inconclusive: 0.112 µM [inhibitor, full curve, poor fit].
For O=C(CC(c1ccccc1)c1cc(Br)ccc1O)NCc1ccco1 (stereo not drawn), the Potency was inconclusive: 35.5 µM [inhibitor, single point].
With CN(C)S(=O)(=O)Nc1cc(Cl)cc(Cl)c1 the Potency was inconclusive: 3.16 µM [inhibitor, single point].
For COc1ccc(NC(=O)c2cccs2)cc1NC(=O)c1ccco1, the “activity, negative = inhibition” value was inactive: 11.3%.
In the case of CCc1ccc(/C=N/NC(=O)c2cc(-c3ccccc3OC)nc3ccccc23)s1, the Potency is reported as inconclusive: 35.5 µM [inhibitor, single point].
For Cn1ccsc1=NC(=O)c1ccc(S(C)(=O)=O)c([N+](=O)[O-])c1, the Potency was inconclusive: 35.5 µM [inhibitor, single point].
For Cn1ncc2c(N3CCN(c4ccccc4F)CC3)ncnc21, the Potency was “inactive”.
With O=C(COC(=O)c1c2c(nc3ccccc13)/C(=C\c1ccco1)CC2)NC1CCCC1 the Potency was inconclusive: 35.5 µM [inhibitor, single point].
